# Test results as given in ChEMBL document CHEMBL5606460, “ASAP - DENV-2 NS2B-NS3 protease fluorescence single point” (2024).
# The whole screen tested about 2,000 compounds, of which about 110 (5.5%) showed an effect of 50% or more. Some of the results follow. Residues, ends and D or L forms follow the SMILES beside them. *: point of attachment. Boc = CC(C)(C)OC(=O)*
# Target: Genome polyprotein (dengue virus type 2) (UniProt P29990)
# [1] = Thailand/16681/1984, Concentration 25.0 uM, Number of replicates 1.0
compound,measurement,setting,value
CC(C)c1cc(CNC(=O)[C@]2(c3ccc(F)cc3)CCCNC2)[nH]n1,inhibition,"Thailand/16681/1984, Concentration 49.5 uM, Number of replicates 2.0, Standard deviation 0.4691512826590698 %",-0.311%
same,inhibition,"Thailand/16681/1984, Concentration 99.01 uM, Number of replicates 2.0, Standard deviation 0.2530804456588207 %",0.773%
same,inhibition,"Thailand/16681/1984, Concentration 198.0 uM, Number of replicates 2.0, Standard deviation 1.1238949088177357 %",0.844%
Cc1cnccc1CN1CCC(c2c[nH]c3cccnc23)CC1,inhibition,"Thailand/16681/1984, Concentration 49.5 uM, Number of replicates 2.0, Standard deviation 2.9317478900876757 %",-1.55%
same,inhibition,"Thailand/16681/1984, Concentration 99.01 uM, Number of replicates 2.0, Standard deviation 4.2441940513680025 %",-1.09%
same,inhibition,"Thailand/16681/1984, Concentration 198.0 uM, Number of replicates 2.0, Standard deviation 4.124648308783217 %",-1.04%
Cn1cc([C@@H](NC(=O)OCc2ccccc2)C(=O)Nc2cccc(CN)c2)cn1,inhibition,"Thailand/16681/1984, Concentration 49.5 uM, Number of replicates 2.0, Standard deviation 1.4908611467254307 %",-3.8%
same,inhibition,"Thailand/16681/1984, Concentration 99.01 uM, Number of replicates 2.0, Standard deviation 0.7231895128161225 %",-3.33%
same,inhibition,"Thailand/16681/1984, Concentration 198.0 uM, Number of replicates 2.0, Standard deviation 0.43381818607220846 %",-2.85%
Cc1cc(CO)c2cccc(Cc3ccccc3NC(=O)c3ccc(N)nn3)c2n1,inhibition,"Thailand/16681/1984, Concentration 49.95 uM, Number of replicates 2.0, Standard deviation 0.1848599866889806 %",-0.161%
same,inhibition,"Thailand/16681/1984, Concentration 99.9 uM, Number of replicates 2.0, Standard deviation 2.497340870394922 %",0.405%
O=C(NCCc1c[nH]cn1)[C@@]1(c2ccc(F)cc2)CCCNC1,inhibition,"Thailand/16681/1984, Concentration 50.0 uM, Number of replicates 2.0, Standard deviation 0.3370852681809151 %",1.11%
same,inhibition,"Thailand/16681/1984, Concentration 100.0 uM, Number of replicates 2.0, Standard deviation 0.3435886111998431 %",2%
same,inhibition,"Thailand/16681/1984, Concentration 200.0 uM, Number of replicates 2.0, Standard deviation 1.0551527587912057 %",1.4%
O=Cc1ccc(N2CCC(C(=O)Nc3ccc([N+](=O)[O-])c4ccccc34)CC2)cc1,inhibition,[1],13.5%
c1ccc2c([C@H]3CCN(Cc4cnns4)C3)c[nH]c2c1,inhibition,"Thailand/16681/1984, Concentration 49.5 uM, Number of replicates 2.0, Standard deviation 3.0780463869115993 %",-4.38%
same,inhibition,"Thailand/16681/1984, Concentration 99.01 uM, Number of replicates 2.0, Standard deviation 2.5330949692173803 %",-3.43%
same,inhibition,"Thailand/16681/1984, Concentration 198.0 uM, Number of replicates 2.0, Standard deviation 2.7142685080443707 %",0.233%
CCC1CCN(Cc2c[nH]c3ccccc23)CC1,inhibition,"Thailand/16681/1984, Concentration 49.5 uM, Number of replicates 2.0, Standard deviation 2.7396823833468638 %",-3.92%
same,inhibition,"Thailand/16681/1984, Concentration 99.01 uM, Number of replicates 2.0, Standard deviation 2.111384308316896 %",-4.24%
same,inhibition,"Thailand/16681/1984, Concentration 198.0 uM, Number of replicates 2.0, Standard deviation 2.001031509888762 %",-1.98%
O=Cc1ccc(N2CCC(C(=O)N3CCC(CCN4CCCC4)CC3)CC2)cc1,inhibition,[1],8.07%
CN(C)Cc1cn(C2CN(C(=O)c3ccc4[nH]ncc4c3)C2)nn1,inhibition,"Thailand/16681/1984, Concentration 49.5 uM, Number of replicates 2.0, Standard deviation 0.3597803345796673 %",-5.6%
same,inhibition,"Thailand/16681/1984, Concentration 99.01 uM, Number of replicates 2.0, Standard deviation 1.1960695666756216 %",-5.01%
same,inhibition,"Thailand/16681/1984, Concentration 198.0 uM, Number of replicates 2.0, Standard deviation 1.2525682600414454 %",-4.95%
O=C(NCCc1ccn[nH]1)c1cccc2c1NC(=O)[C@]1(CCCN1)C2,inhibition,"Thailand/16681/1984, Concentration 49.5 uM, Number of replicates 2.0, Standard deviation 2.5151229629564558 %",-3.1%
same,inhibition,"Thailand/16681/1984, Concentration 99.01 uM, Number of replicates 2.0, Standard deviation 3.956768618278056 %",-2.79%
same,inhibition,"Thailand/16681/1984, Concentration 198.0 uM, Number of replicates 2.0, Standard deviation 5.068823694998207 %",-2.4%
CSCC[C@H](NC(=O)OC(C)(C)C)C(=O)N1CCC[C@H]1C(=O)O (Boc-Met-Pro-OH),inhibition,"Thailand/16681/1984, Concentration 49.5 uM, Number of replicates 2.0, Standard deviation 1.4939910981363953 %",-1.39%
same,inhibition,"Thailand/16681/1984, Concentration 99.01 uM, Number of replicates 2.0, Standard deviation 1.5598464340184859 %",-2.18%
same,inhibition,"Thailand/16681/1984, Concentration 198.0 uM, Number of replicates 2.0, Standard deviation 1.150019372083588 %",-1.35%
COc1cc(COc2cc(C)c(C)nn2)nc(N2CCNCC2)n1,inhibition,"Thailand/16681/1984, Concentration 49.5 uM, Number of replicates 2.0, Standard deviation 0.14766165234531128 %",-2.23%
same,inhibition,"Thailand/16681/1984, Concentration 99.01 uM, Number of replicates 2.0, Standard deviation 1.3842147000084961 %",-0.476%
same,inhibition,"Thailand/16681/1984, Concentration 198.0 uM, Number of replicates 2.0, Standard deviation 1.2288529448807899 %",1.4%
Cc1cc(CO)c2cccc(Cc3ccccc3C(=O)N3C[C@H](O)C[C@H]3C(=O)O)c2n1,inhibition,"Thailand/16681/1984, Concentration 49.95 uM, Number of replicates 2.0, Standard deviation 1.2669833251691414 %",-2.6%
same,inhibition,"Thailand/16681/1984, Concentration 99.9 uM, Number of replicates 2.0, Standard deviation 2.201230894776843 %",0.69%
Cc1ccc([C@H](CNC(=O)C2CCN(c3ccc(C=O)cc3)CC2)N(C)C)cc1,inhibition,[1],11.2%
O=C(c1ccn([C@H]2CCCNC2)n1)N1CCO[C@@H](c2n[nH]c(CO)n2)C1,inhibition,"Thailand/16681/1984, Concentration 49.5 uM, Number of replicates 2.0, Standard deviation 3.041044909960612 %",-3.65%
same,inhibition,"Thailand/16681/1984, Concentration 99.01 uM, Number of replicates 2.0, Standard deviation 0.8836043800523453 %",-2.4%
same,inhibition,"Thailand/16681/1984, Concentration 198.0 uM, Number of replicates 2.0, Standard deviation 3.6375578548923917 %",-0.866%
Cc1cc(CO)c2cccc(NC(=O)c3ccc(-c4ccccn4)s3)c2n1,inhibition,"Thailand/16681/1984, Concentration 49.95 uM, Number of replicates 2.0, Standard deviation 1.2154105868698768 %",14.9%
same,inhibition,"Thailand/16681/1984, Concentration 99.9 uM, Number of replicates 2.0, Standard deviation 2.2051689698611554 %",20.9%
Cc1cc(CO)c2cccc(Cc3cccc(C(=O)N[C@@H](CCN)C(=O)O)c3)c2n1,inhibition,"Thailand/16681/1984, Concentration 49.95 uM, Number of replicates 2.0, Standard deviation 0.6194784255105775 %",-9.07%
same,inhibition,"Thailand/16681/1984, Concentration 99.9 uM, Number of replicates 2.0, Standard deviation 14.524673907807347 %",0.432%
O=Cc1ccc(N2CCC(C(=O)Nc3ccc(I)c(F)c3)CC2)cc1,inhibition,[1],11.4%
O=Cc1ccc(N2CCC(C(=O)NCc3cccc(-c4ccccc4)c3)CC2)cc1,inhibition,[1],20.4%
CCc1nc(CCNC(=O)C2CCN(c3ccc(C=O)cc3)CC2)cs1,inhibition,[1],11.2%
